Some of the results follow. Values were computed here from the reads of four pooled replicates and scatter widely.

For this experiment, the target named is T1, Pho4 (S. cerevisiae) (UniProt P07270).
T1 sequence: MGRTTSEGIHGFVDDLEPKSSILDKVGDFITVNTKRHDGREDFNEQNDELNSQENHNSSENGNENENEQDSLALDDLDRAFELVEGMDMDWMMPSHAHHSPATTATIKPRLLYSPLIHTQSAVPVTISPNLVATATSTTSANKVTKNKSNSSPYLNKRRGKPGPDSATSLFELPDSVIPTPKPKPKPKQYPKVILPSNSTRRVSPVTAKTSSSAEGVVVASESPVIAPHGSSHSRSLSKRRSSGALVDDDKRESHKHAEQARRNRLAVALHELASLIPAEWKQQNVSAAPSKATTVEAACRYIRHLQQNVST
As to the kind of experiment: relative binding free energy (BET-seq); higher = weaker binding. To be noted: reference: library average.
In the case of TGTACCACGTGTGAGA, the “relative binding free energy” value stood at 0.11 kcal/mol. In the case of CAAGTCACGTGGGGGC, the “relative binding free energy” value came to 0.06 kcal/mol. The same measure for AACTGCACGTGGGTGT: -0.04 kcal/mol.

Turning to ATGTTCACGTGCTGAA, the “relative binding free energy” value turned out to be 0.29 kcal/mol. For the sequence TGTGGCACGTGAAGTC, the “relative binding free energy” value came to 0.18 kcal/mol. As for TGGCTCACGTGAGAGA, the “relative binding free energy” value was 0.58 kcal/mol. The same measure for TGGCGCACGTGGGCTT: -0.29 kcal/mol. Under TTCTTCACGTGGGCTA stands 0.2 kcal/mol. The same measure for GATGTCACGTGGAAAG: 0.11 kcal/mol; for TATAGCACGTGTGACG: 0.03 kcal/mol; for TAGTGCACGTGTCGTA: 0.11 kcal/mol.

Turning to ATGGGCACGTGCGTTT, the “relative binding free energy” value was -0.09 kcal/mol. Under CGTTTCACGTGGTTCG stands 0.28 kcal/mol. The same measure for GATGCCACGTGGTTGG: -0.1 kcal/mol; for TTGTCCACGTGGGGAG: -0.09 kcal/mol. Under CGAGGCACGTGGTAGT stands -0.13 kcal/mol.

Turning to TAGAGCACGTGAGGAT, the “relative binding free energy” value was 0.12 kcal/mol. The same measure for AGTACCACGTGGGTGA: -0.28 kcal/mol; for ATAGGCACGTGCTGTA: -0.28 kcal/mol. The same measure for TAGGCCACGTGTGGTT: -0.03 kcal/mol. Under TCTGGCACGTGGTTTG stands -0.2 kcal/mol; under GGGGTCACGTGCGTTT, 0.19 kcal/mol. In the case of TAGAGCACGTGAAGGG, the “relative binding free energy” value stood at 0.08 kcal/mol.

For the sequence TCCGTCACGTGGTATG, the “relative binding free energy” value was 0.13 kcal/mol. Under TGTGTCACGTGAATTA stands 0.29 kcal/mol; under GTTGTCACGTGGTTCA, 0.06 kcal/mol. The same measure for ACGGTCACGTGGTCGG: -0.1 kcal/mol; for ATGTTCACGTGTCCGT: 0.28 kcal/mol. Under AAAAGCACGTGTAGGG stands -0.03 kcal/mol; under GGGTACACGTGGATGC, 0.15 kcal/mol; under CTGGCCACGTGTTGGT, -0.02 kcal/mol. With TCGTTCACGTGGGATT, the “relative binding free energy” value worked out at 0.16 kcal/mol. The same measure for GAAGACACGTGTTTGA: 0.22 kcal/mol; for TTGTGCACGTGGCTAA: -0.18 kcal/mol; for GGTTTCACGTGGACGT: 0.22 kcal/mol. Under AGTGGCACGTGGGAGG stands -0.24 kcal/mol; under TGAGGCACGTGTCGGG, 0 kcal/mol. For TTGTACACGTGTGAAT, the “relative binding free energy” value turned out to be 0.11 kcal/mol. For GTCGACACGTGGTGTT, the “relative binding free energy” value is -0.09 kcal/mol. The same measure for GGGGTCACGTGTCGTC: 0.06 kcal/mol; for AGGCTCACGTGGTGTA: 0.15 kcal/mol; for ATCTGCACGTGTGAGT: 0.1 kcal/mol. Under TTTTACACGTGGACTT stands 0.16 kcal/mol; under GGGTACACGTGAGCGT, 0.11 kcal/mol; under AGGGGCACGTGTCAGT, -0.11 kcal/mol. Under GGGGTCACGTGACTTG stands 0.27 kcal/mol; under TATGTCACGTGTCTTT, 0.03 kcal/mol.

Consider TTTTTCACGTGCGAGG, for which the “relative binding free energy” value stood at 0.26 kcal/mol. The same measure for GATGTCACGTGTTAAG: 0.15 kcal/mol; for AAATTCACGTGAATGG: 0.4 kcal/mol. Under GAGGCCACGTGGGTGG stands -0.07 kcal/mol; under GTGAACACGTGGGGCT, -0.12 kcal/mol. Take TTATTCACGTGTCTCT: the “relative binding free energy” value was 0.11 kcal/mol.

In the case of TAGGACACGTGAGGAG, the “relative binding free energy” value was 0.27 kcal/mol. The same measure for TGCGGCACGTGCGCGG: -0.19 kcal/mol. The same measure for GTATTCACGTGAGATT: 0.5 kcal/mol; for ATTTGCACGTGCTTAG: -0.03 kcal/mol. As for TCAAGCACGTGGCGGG, the “relative binding free energy” value is -0.05 kcal/mol.

Take GAGGACACGTGGTTAT: the “relative binding free energy” value was -0.08 kcal/mol. Under GGGGGCACGTGCTTAT stands -0.02 kcal/mol; under ATAAGCACGTGTGTTG, -0.05 kcal/mol. Regarding TCAAACACGTGGTGAG, the “relative binding free energy” value is 0.22 kcal/mol. Under TTAGTCACGTGGACTA stands 0.1 kcal/mol; under TGTAGCACGTGACGTA, 0.02 kcal/mol; under GGTGGCACGTGATGGC, -0.03 kcal/mol. Under TAGGTCACGTGTAAGA stands 0.15 kcal/mol; under CAAGTCACGTGTGGGC, 0.31 kcal/mol; under TGGAACACGTGGGTGC, -0.25 kcal/mol. Under GAGTGCACGTGATCGG stands 0.15 kcal/mol. Regarding GTGATCACGTGTTTTC, the “relative binding free energy” value stood at 0.25 kcal/mol. The same measure for ATTGTCACGTGTAACG: 0.09 kcal/mol; for GGCGTCACGTGGGAAG: 0.06 kcal/mol; for AATTACACGTGTGTGG: 0.05 kcal/mol. Regarding CTGTTCACGTGGTACG, the “relative binding free energy” value turned out to be 0.22 kcal/mol.

Regarding ATCGGCACGTGGTATT, the “relative binding free energy” value is -0.15 kcal/mol. The same measure for CTGGGCACGTGTGAAT: 0.2 kcal/mol; for ATAATCACGTGGGGGT: 0.03 kcal/mol. TTGATCACGTGGTGAG: the “relative binding free energy” value was determined as 0.13 kcal/mol. Under GTTTACACGTGTTCAT stands 0.09 kcal/mol. The same measure for GTAGTCACGTGTGGGA: 0.06 kcal/mol; for CTTGTCACGTGAGCAG: 0.29 kcal/mol. The same measure for TGCGTCACGTGGTGGA: 0.05 kcal/mol. On to GTGTCCACGTGGAGGC, for which the “relative binding free energy” value turned out to be 0.01 kcal/mol.

Consider AAGTTCACGTGATTTG, for which the “relative binding free energy” value was 0.29 kcal/mol. The same measure for GTGATCACGTGGAGCG: 0.23 kcal/mol; for CCGGGCACGTGGTTTG: -0.23 kcal/mol. The same measure for AGGGACACGTGGGAAT: -0.04 kcal/mol; for TAGCTCACGTGAGGGG: 0.23 kcal/mol; for AGTGGCACGTGCGTAT: -0.17 kcal/mol.

Regarding TGTCGCACGTGTCGTG, the “relative binding free energy” value was -0.17 kcal/mol. As for TTCGACACGTGTGTGA, the “relative binding free energy” value was found to be 0.17 kcal/mol.

On to TAGGTCACGTGGCTGG, for which the “relative binding free energy” value is -0.02 kcal/mol.

TGTTGCACGTGGGACA: the “relative binding free energy” value is -0.02 kcal/mol. On to TTTTGCACGTGTTGGA, for which the “relative binding free energy” value is 0.16 kcal/mol. Under CCGGGCACGTGGTTAG stands -0.17 kcal/mol; under CGCTTCACGTGTGGTG, 0.14 kcal/mol; under AGTATCACGTGGGAGG, 0.05 kcal/mol. The same measure for TTTTACACGTGTAGGC: 0.13 kcal/mol.

On to TGTTTCACGTGGCTTA, for which the “relative binding free energy” value was determined as 0.23 kcal/mol. The same measure for TCGCGCACGTGATGGT: 0.05 kcal/mol. GTTTCCACGTGCGGTT: the “relative binding free energy” value is 0.15 kcal/mol. Under ATTATCACGTGCAGGT stands -0.01 kcal/mol; under GGGTGCACGTGGGCCG, -0.08 kcal/mol. Under AGCTACACGTGGTGGT stands 0.03 kcal/mol; under TTAAACACGTGATATT, 0.24 kcal/mol. Under ATGTGCACGTGCTGAT stands -0.13 kcal/mol; under GAGGGCACGTGGGCTA, -0.23 kcal/mol; under GGGGTCACGTGTTGCC, 0.15 kcal/mol. Take TGGTGCACGTGGGCTG: the “relative binding free energy” value was -0.17 kcal/mol. For the sequence TATGCCACGTGTGTGT, the “relative binding free energy” value was -0.14 kcal/mol. Under GCTGTCACGTGAGATT stands 0.4 kcal/mol; under TGTGACACGTGGTTCT, -0.18 kcal/mol; under GGGGACACGTGGTCTT, 0.04 kcal/mol. Turning to ATGGACACGTGTAAGG, the “relative binding free energy” value was 0.16 kcal/mol. Under AACGTCACGTGATGTG stands 0.13 kcal/mol.

Source of the values: the BET-seq Pho4 binding data (Le et al. 2018).
